From US9789096B2, “Methods and compositions for selective and targeted cancer therapy” (Board of Regents of the University of Texas System, priority 2013, dated 2017)

target: T1, p37 and p30 (SCD1) (Homo sapiens, UniProt O00767); assay: Competition with SW208108 for covalent binding to p37 and p30 in H2122 cells; conditions: band formed by SW208108 in the presence of a 10-fold excess of competitor
T1 sequence (O00767 1-359): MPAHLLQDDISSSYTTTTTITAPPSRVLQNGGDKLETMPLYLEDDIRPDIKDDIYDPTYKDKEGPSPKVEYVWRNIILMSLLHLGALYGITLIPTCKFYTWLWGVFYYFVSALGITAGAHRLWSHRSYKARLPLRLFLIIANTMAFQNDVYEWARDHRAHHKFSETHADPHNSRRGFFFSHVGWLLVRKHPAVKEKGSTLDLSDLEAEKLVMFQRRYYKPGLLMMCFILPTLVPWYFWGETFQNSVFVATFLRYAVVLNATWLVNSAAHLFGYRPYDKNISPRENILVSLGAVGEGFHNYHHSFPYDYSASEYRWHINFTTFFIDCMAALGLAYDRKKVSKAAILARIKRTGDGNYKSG

Row | Compound | Band Intensity Relative to DMSO
1 | COc1ccc(CCNC(=O)NC(=O)c2ccc(C(O)c3ccccc3)cc2)cc1 (stereo not shown) [SW208460-1-A] | 15.1%
2 | COc1ccc(CCNC(=O)NC(=O)c2ccc(C(=O)NCc3ccccc3)cc2)cc1 [SW208412-1-A] | 51.2%
3 | O=C(NCCc1ccc(O)cc1)NC(=O)c1ccc(C(=O)c2ccccc2)cc1 [SW208459-1-A] | 9.5% and 7.3%
4 | COc1ccccc1C(=O)c1ccc(C(=O)NC(=O)NCCc2ccc(O)cc2)cc1 [SW208580-1-A] | 108.7%
5 | COc1ccc(CCNC(=O)C(=O)Nc2ccc(C)cc2F)cc1 [SW206883-1-A] | 74.7%
6 | COc1ccc(CCNC(=O)NC(=O)c2ccc(C(=O)c3ccc(OC)cc3)cc2)cc1 [SW208220-1-A] | 95.3%
7 | COc1ccc(C(=O)c2ccc(NC(=O)C(=O)NCCc3ccc(O)cc3)cc2)cc1 [SW208117-1-A] | 4.7%
8 | COc1ccc(CCNC(=O)NC(=O)c2ccc(C(=O)c3ccccc3)cc2)cc1 [SW208222-1-A] | 46.4%
9 | COc1ccc(CCNC(=O)NC(=O)c2ccc(C(=O)N(C)C)cc2)cc1 [SW208455-1-A] | 103.8%
10 | COc1ccc(CCNC(=O)C(=O)Nc2ccc(Cl)c(C#N)c2)cc1 [SW206959-1] | 22.4%
11 | Cc1cccc(C(=O)c2ccc(C(=O)NC(=O)NCCc3ccc(O)cc3)cc2)c1 [SW208582-1-A] | 90.9%
12 | O=C(Nc1nc2ccccc2o1)c1ccc(C(=O)c2ccccc2)cc1 [SW208665-1] | 107.5%
13 | COc1ccc(CCNC(=O)NC(=O)c2ccc(Cl)cc2)cc1 [SW208401-1-A] | 33.4%
14 | COc1ccc(CCNC(=O)NC(=O)c2ccc(-c3ccccc3)cc2)cc1 [SW208393-1-A] | 72.4%
15 | O=C(Nc1nc2ccccc2[nH]1)c1ccc(C(=O)c2ccccc2)cc1 [SW208653-1] | 38.8%
16 | O=C(Nc1nc2ccc(O)cc2s1)c1ccc(C(=O)c2ccccc2)cc1 [SW202864-1] | 46.5%
17 | O=C(NCCc1ccc(O)cc1)NC(=O)c1ccc(Nc2ccccc2)cc1 [SW208562-1-A] | 3.7%
18 | O=C(NCCc1ccc(O)cc1)NC(=O)c1ccc(COc2ccccc2)cc1 [SW208522-1-A] | 1.1%
19 | COc1ccc(CCNC(=O)NC(=O)c2ccc(Nc3ccccc3)cc2)cc1 [SW208561-1-A] | 13.8%
20 | O=C(NCCc1ccc(O)cc1)NC(=O)c1ccc(Oc2ccccc2)cc1 [SW208523] | 2.1%
21 | COc1ccc(CCNC(=O)NC(=O)c2ccc(Oc3ccccc3)cc2)cc1 [SW208456] | 10.5%
22 | COc1ccc(CCNC(=O)NC(=O)c2ccc(COc3ccccc3)cc2)cc1 [SW208458-1-A] | 8.8% and 10.6%

Values joined by “and” are separate entries in the source; they are usually repeats but may differ in a detail not shown here. Equal entries are not always repeated.
